The list shows a part of the results.
What was measured:
[1] = test system: HSkMC (human skeletal muscle cells); test: cytotoxicity call (relative viability < 0.9); details: 10 µM
[2] = test system: HepG2; test: cytotoxicity call (relative viability < 0.9); details: 10 µM
[3] = test system: S. aureus RN4220; test: growth inhibition call (relative growth <= 0.2); details: 50 µM

| Compound | cytotoxicity call [1] | cytotoxicity call [2] | growth inhibition call [3] |
| --- | --- | --- | --- |
| O=C(C[C@H]1CC[C@@H]2[C@H](COC[C@@H](O)CN2C(=O)Nc2ccc(Cl)cc2)O1)NC1Cc2ccccc2C1 | inactive | inactive | inactive |
| CS(C)(=O)=O | inactive | active | inactive |
| CCOc1ccnc2c1c(=O)n(CC(N)=O)c(=O)n2C | inactive | inactive | inactive |
| C[C@H](CO)N1C[C@H](C)[C@@H](CN(C)S(C)(=O)=O)OCCCC[C@H](C)Oc2ccc(N(C)C)cc2C1=O | inactive | inactive | inactive |
| C[C@@H]1CN([C@H](C)CO)C(=O)c2cc(NS(=O)(=O)c3cn(C)cn3)ccc2O[C@@H](C)CCCCO[C@@H]1CN(C)S(=O)(=O)c1cccs1 | inactive | inactive | inactive |
| O[C@@H](CCl)CN1CC[N+]2(CC1)CC[N+]1(CCN(C[C@@H](O)CCl)CC1)CC2 | inactive | inactive | inactive |
| O=C(Cn1nnc2ccccc2c1=O)Nc1nnc[nH]1 | inactive | inactive | inactive |
| CC(C)Cn1cnc2c1c(=O)n(C)c(=O)n2C | inactive | inactive | inactive |
| C[C@@H]1CN([C@H](C)CO)C(=O)c2cccc(NC(=O)c3cnccn3)c2O[C@@H]1CN(C)C(=O)Nc1ccccc1 | inactive | inactive | inactive |
| COc1cccc(C(=O)Nc2ccc3c(c2)C(=O)N(C)[C@@H]2CC[C@H](CC(=O)NCC4CC4)O[C@@H]2CO3)c1 | inactive | active | inactive |
| CCCNC(=O)N1C[C@@H](C)[C@@H](OC)CN(C)C(=O)c2cc(NS(=O)(=O)CC(F)(F)F)ccc2OC[C@H]1C | inactive | inactive | inactive |
| C[C@@H]1CN([C@@H](C)CO)C(=O)c2cccc(NC(=O)C3CC3)c2O[C@@H]1CN(C)Cc1ccc(C(=O)O)cc1 | inactive | inactive | inactive |
| COc1ccccc1C#Cc1ccc2c(c1)O[C@@H](CN(C)Cc1cccnc1)[C@H](C)CN([C@H](C)CO)S2(=O)=O | active | active | inactive |
| C[C@@H]1CN([C@@H](C)CO)S(=O)(=O)c2ccc(C#Cc3ccc(F)cc3)cc2O[C@H]1CN(C)S(=O)(=O)c1cn(C)cn1 | inactive | inactive | inactive |
| COc1ccc(C#Cc2ccc3c(c2)[C@]2(C(=O)N3)[C@H](C(=O)N3CCN(c4ncccn4)CC3)[C@H]3C(=O)O[C@H](c4ccccc4)[C@H](c4ccccc4)N3[C@@H]2c2ccc(OCCO)cc2)cc1 | inactive | inactive | inactive |
| C[C@H]1CN([C@@H](C)CO)C(=O)c2cc(NC(=O)CCN3CCOCC3)ccc2O[C@H]1CN(C)S(=O)(=O)c1cccs1 | inactive | inactive | inactive |
| CCC12CCCN3CCc4c(n(c5ccccc45)C(O)(C(=O)OC)C1)C32 (stereo unspecified) | inactive | inactive | inactive |
| COc1ccc2c3c([nH]c2c1)[C@H](CO)N(C[C@]13CN(Cc2ccccc2F)C1)S(=O)(=O)c1cn(cn1)C | inactive | inactive | inactive |
| C=C(C)C(=O)NC(=O)/C=C/C | inactive | inactive | inactive |
| C[C@@H]1CN([C@@H](C)CO)S(=O)(=O)c2ccc(-c3cccc(C#N)c3)cc2O[C@H]1CN(C)C(=O)c1cccnc1 | inactive | inactive | inactive |
| C[C@H](CO)N1C[C@H](C)[C@@H](CN(C)C(=O)c2ccc3c(c2)OCO3)Oc2ncc(C3=CCCC3)cc2C1=O | inactive | inactive | inactive |
| COc1ccc(NC(=O)N(C)C[C@H]2Oc3ccc(NS(=O)(=O)c4cn(C)cn4)cc3CC(=O)N([C@@H](C)CO)C[C@@H]2C)cc1 | inactive | inactive | inactive |
| C[C@H](CO)N1C[C@H](C)[C@H](CN(C)C(=O)Nc2cccc3ccccc23)OCCCC[C@H](C)Oc2ccc(NC(=O)CCCN(C)C)cc2C1=O | inactive | inactive | inactive |
| C[C@@H]1CN([C@H](C)CO)C(=O)c2cc(NS(=O)(=O)c3cccs3)ccc2O[C@@H](C)CCCCO[C@@H]1CN(C)Cc1ccc2c(c1)OCO2 | inactive | inactive | inactive |
| C[C@@H]1CN([C@H](C)CO)C(=O)c2cccc(NS(=O)(=O)c3ccccc3)c2O[C@@H]1CN(C)S(=O)(=O)c1cn(C)cn1 | inactive | inactive | inactive |
| COC(=O)[C@@H](Cc1ccccc1)N[C@H](/C=C/C1CC1)[C@@H](O)CCn1cc(-c2cccc(/C=C/C(=O)NO)c2)nn1 | inactive | inactive | inactive |
| COc1ccc(NC(=O)Nc2ccc3c(c2)C(=O)N([C@H](C)CO)C[C@@H](C)[C@@H](CN(C)C(=O)Nc2cccc4ccccc24)O3)cc1 | active | inactive | inactive |

Source: the antibiotic and cytotoxicity screens of Wong et al. (2023)
